Each structure is given as a SMILES string. Screen size: about 50,000 compounds; about 800 (1.6%) showed an effect of 50% or more. The list shows a part of the results.

This test concerns the target Bcl-2-like protein 10 (Homo sapiens) (UniProt Q9HD36). Description: TR3 peptide-Bcl-B binding displacers, biochemical primary FP assay, phenotype converters (AID 1240).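 Note: 0% = Bcl-B with tracer peptide and DMSO and 100% = tracer peptide lacking Bcl-B.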 The note with it: GST-Bcl-B / FITC-TR3 peptide fluorescence polarization; stronger effect = higher value; compound at 3.75 mg/L. Background: Fluorescence polarisation rises when a labelled molecule tumbles more slowly, as on binding a larger partner.
Sequence of UniProt Q9HD36 (Q9HD36 whole entry, looked up): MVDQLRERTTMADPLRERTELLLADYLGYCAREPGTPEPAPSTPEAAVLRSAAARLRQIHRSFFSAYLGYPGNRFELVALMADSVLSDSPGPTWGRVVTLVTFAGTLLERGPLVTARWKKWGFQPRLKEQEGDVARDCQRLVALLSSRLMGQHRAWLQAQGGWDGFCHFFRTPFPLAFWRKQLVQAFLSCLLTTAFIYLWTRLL
For `CC(C)(C)c1ccc(OCC(=O)N/N=C/c2ccc(O)c([N+](=O)[O-])c2)cc1`, the displacement was found to be 6.3%. The same measure for `C=CCN1C(=O)/C(=C\c2ccccc2OCc2ccc(Cl)cc2)SC1=S`: 23.3%; for `Cc1ccc(Nc2ccc([N+](=O)[O-])ccc2=O)cc1`: 136%; for `CCOc1ccc2nc(SCc3ccc(Cl)cc3)nc(C)c2c1`: 8.6%. The same measure for `Cc1nn(Cc2cccc(Cl)c2)c(N)c1-c1ccccc1`: -9%; for `Cc1ccc(-c2cc(N)n(Cc3ccc(Cl)cc3)n2)cc1`: 9.1%; for `CN(C)c1ccc(NS(=O)(=O)c2ccc(N3C(=O)CCC3=O)cc2)cc1`: 19.2%. With `CCOC(=O)c1ccccc1NC(=O)c1ccc(CN2CCc3ccccc3C2)cc1`, the displacement stood at 5.9%. Regarding `COc1ccc(C(=O)N2CCN(Cc3cccc(Oc4ccccc4)c3)CC2)cc1OC`, the displacement worked out at 6.4%. Take `CCCOC(=O)c1cccc(NC(=O)COc2ccccc2Cl)c1`: the displacement is -5.3%. The same measure for `CCN(CC)CCCCCCOc1ccc(F)cc1`: 8.4%.

In the case of `Cc1ccc(N2C(=O)CC(N3CCN(c4ccccn4)CC3)C2=O)cc1` (configuration not stated), the displacement was determined as 6.7%. Turning to `O=C(CCC1CCCC1)Nc1cc(Cl)ccc1Cl`, the displacement was 4.2%.

As for `COc1ccc(C2CC(C(F)(F)F)n3ncc(C(=O)O)c3N2)cc1OC` (configuration not stated), the displacement was found to be 8.8%.

`CC(C)CNc1nc(-c2ccccc2)nc2ccccc12`: the displacement was 3.3%.

As to `Cc1ccc(S(=O)(=O)Nc2c(C)cc(C)cc2C)c(C)c1`, the displacement came to 12.7%. Take `Cc1ccc(N2C(=O)CC(N3CCC(O)(c4ccc(Br)cc4)CC3)C2=O)cc1` (configuration not stated): the displacement stood at 6.2%. Take `COc1ccc(Cl)cc1C(=O)Nc1ccc(NC(=O)c2ccc(C(C)(C)C)cc2)cc1`: the displacement is 16.7%. As to `CC1CCN(C(=O)c2ccc(Cl)cc2)CC1`, the displacement was -13.3%. The same measure for `Cc1c(NC(=O)c2ccc(-c3ccccc3[N+](=O)[O-])o2)cccc1-c1nc2ncccc2o1`: 14.4%; for `COc1ccc(/C=C2/SC(N)=NC2=O)c(OC)c1`: -3.2%. As to `CC1CN(C(=O)c2ccc([N+](=O)[O-])cc2)CC(C)O1` (configuration not stated), the displacement amounted to 15%. As for `CCOc1ccc(/C=C2\C(=O)NC(=S)N(c3ccc(CC)cc3)C2=O)cc1OC`, the displacement was -8%. Regarding `O=C1NC(=O)N(c2ccccc2)C(=O)/C1=C\c1ccc(-c2ccc(F)cc2)o1`, the displacement amounted to 137%. As for `CN1CCN(S(=O)(=O)c2ccc(Br)c3ccccc23)CC1`, the displacement is -4.7%. Take `CCCc1c(C)nc2ccc(Br)cc2c1SCC(=O)O`: the displacement was -3%. As for `COc1cc(C(=O)N/C(=C/c2ccc(Br)cc2)C(=O)NC(C)C(=O)O)cc(OC)c1OC` (configuration not stated), the displacement was -5.8%. The value for `COc1ccccc1N1CCN(C(=O)c2ccc(CN(c3cc(Cl)ccc3C)S(=O)(=O)c3ccccc3)cc2)CC1` was -18.5%; that for `Cc1cc(C)nc(N2C(=O)c3ccc(C(=O)O)cc3C2=O)n1` was -7.7%.

Consider `COc1cc(C2/C(=C(/O)c3ccccc3)C(=O)C(=O)N2c2cccc(C)c2)ccc1O` (configuration not stated), for which the displacement is 2.3%. In the case of `CCOC(=O)c1ccc(N=CC2=C(O)CC(c3ccccc3)CC2=O)cc1` (configuration not stated), the displacement was -15.4%. `Cc1sc(CO)c(Sc2ccccc2)c1C(=O)O`: the displacement worked out at 9.1%. With `Cc1cc(OCc2nc(-c3ccccc3)no2)ccc1Br`, the displacement is -4.6%. For the compound `CC1=NN(c2ccc(C(=O)O)cc2)C(=O)/C1=C\c1cccs1`, the displacement was determined as 14.2%. `O=C1c2ccccc2C(=O)N1CCCCN(C(=O)Nc1ccc([N+](=O)[O-])cc1)c1ccc(Cl)cc1`: the displacement amounted to 15.9%. In the case of `CC1=C(C(=O)OCCCc2ccccc2)C(c2ccccc2Br)CC(=O)N1` (configuration not stated), the displacement was -9.2%.

Turning to `Cc1cc(C)cc(N2C(=O)NC(=O)/C(=C\c3ccc(Br)cc3)C2=O)c1`, the displacement was 6.3%. With `COc1ccc(COC(=O)C2=C(C)NC3=C(C(=O)CC(C)(C)C3)C2c2ccc(C)o2)cc1` (configuration not stated), the displacement was -1.8%. The same measure for `Cc1ccccc1OCCCn1ccnc1`: -7.2%; for `COc1ccc(Br)cc1/C=C/C(=O)Nc1nc2ccc(C)cc2s1`: -22.6%. With `CCOc1cc(/C=C2/SC(=S)NC2=O)ccc1OC(=O)c1ccco1`, the displacement was 3.1%. On to `Clc1cccc(OCCCCCN2CCOCC2)c1`, for which the displacement was -2%. Consider `O=C(Nc1ccc2c(c1)OCO2)c1cc([N+](=O)[O-])ccc1Cl`, for which the displacement is -0.4%. As to `CC(=O)C1=C(O)C(=O)N(CCCC(=O)O)C1c1ccc(Br)cc1` (configuration not stated), the displacement was -11.5%. The same measure for `CCCc1[nH]n(-c2ccc([N+](=O)[O-])cc2)c(=O)c1C=NC1CC(C)(C)NC(C)(C)C1`: 0.1%. As to `CC(=O)N1N=C2CC(C)(C)OCC2C1c1ccccc1` (configuration not stated), the displacement came to 12%. The value for `CCOC(=O)C1CCN(C2CC(=O)N(c3ccc(Cl)cc3)C2=O)CC1` (configuration not stated) was 1.4%. In the case of `CC(NS(=O)(=O)c1ccc2ccccc2c1)c1ccccc1` (configuration not stated), the displacement is -6%. Consider `CC1=CC(C)(C)Nc2ccc(OC(=O)COc3ccccc3Cl)cc21`, for which the displacement was 40.4%.

For the compound `COc1ccc(CNC(=S)Nc2cccc(C(F)(F)F)c2)cc1`, the displacement was -5.2%. Consider `O=C(COc1ccc(Cl)cc1Cl)Nc1ccc(F)c(Cl)c1`, for which the displacement is 0.9%. For the compound `Cc1ccccc1NC(=O)C(=O)NCCCOC(C)C`, the displacement was 3.4%. The value for `Cc1ccc(C(=O)/C=C/c2ccc3ncccc3c2)cc1` was 8.9%; that for `CCN1CC2([N+](=O)[O-])C=C(C(N)=O)CC([N+](=O)[O-])(C1)C2` (configuration not stated) was -8.4%; that for `COc1ccc(/C=C2\C(=O)NC(=S)N(c3ccc(Br)cc3C)C2=O)cc1OC` was 9.4%. As to `C/C(=N/N1CCN(c2ccccc2)CC1)c1cccc([N+](=O)[O-])c1`, the displacement was -5.3%. Take `CC(O)(C#CCN1CCCCC1)c1ccccc1` (configuration not stated): the displacement is -6.7%. For `O=[N+]([O-])c1ccc(-c2nnc(-c3ccc(Br)o3)o2)c(Cl)c1`, the displacement came out at 4.9%.

With `COc1cc(/C=C(\C#N)c2nn(CCO)c(N)c2C#N)ccc1OCc1ccc(Cl)cc1Cl`, the displacement amounted to 43.4%. As for `Cc1ccc(C23CC4CC(CC(C(=O)NCc5ccccc5)(C4)C2)C3)cc1`, the displacement is -13.8%. `Nc1ccc2[nH]nc3c2c1C(=O)c1ccccc1-3`: the displacement is 104%. `COc1ccccc1OCC(=O)Nc1c(C)cccc1C(C)C`: the displacement is -4.5%. The same measure for `CCN(CC)c1ccc(C(=O)Nc2cccc(F)c2)cc1`: 13.1%.

Regarding `Cn1c(C=Nc2ccccc2O)nc2ccccc21`, the displacement is -2.3%.

Consider `COc1cc2c(cc1OC)Cc1cc(OC)c(OC)cc1C(=O)C2`, for which the displacement worked out at 14.8%.

As for `Cc1nonc1-c1cn2cc(Cl)ccc2n1`, the displacement was -9.1%. For `N#CSCCCOc1ccccc1F`, the displacement is -4.7%. With `COc1ccc(C(=O)/C=C/Nc2ccc(Cl)cc2[N+](=O)[O-])cc1OC`, the displacement was 11.8%. With `NC(CC(=O)OC1CCCCC1)C(=O)OC1CCCCC1` (configuration not stated), the displacement was found to be 74.3%. Turning to `N#Cc1c(Nc2ccccc2)ccn(CC(=O)c2ccccc2)c1=O`, the displacement is -9%. With `COCCCNc1ncnc2ccc(Br)cc12`, the displacement is -7.3%. The value for `COC(=O)C1=NN(C(=O)c2cccc(Br)c2)C(O)(c2ccc(Cl)cc2)C1` (configuration not stated) was 12.7%; that for `O=C(CCN1C(=O)c2ccccc2C1=O)Nc1cccc(Cl)c1` was 6.1%; that for `COc1ccc(C2=NC(=Cc3ccc(Br)cc3)C(=O)O2)cc1` was 22.5%. The same measure for `Nn1cnc2c(c1=O)C1(CCCC1)Cc1ccccc1-2`: 0.8%; for `Cc1ccc(C(C)C)c(OCCOc2ccc(Cl)cc2/C=N/n2cnnc2)c1`: -1.7%. For the compound `COc1ccc(C2Nc3cccc4cccc(c34)N2)cc1O`, the displacement stood at 23.9%. The same measure for `COc1ccc2nc(NC(=O)c3cc4ccccc4o3)sc2c1`: 9.2%. The value for `COc1ccc(C(=O)NC(Oc2ccc(Cl)cc2)C(Cl)(Cl)Cl)cc1OC` (configuration not stated) was -4.1%; that for `CC1CCc2c(sc(NC(=O)c3c(F)c(F)c(F)c(F)c3F)c2C#N)C1` (configuration not stated) was 12.9%. Take `CCCNC(=O)c1c(NC(=O)c2ccccc2F)sc2c1CCC(C)C2` (configuration not stated): the displacement is 16.4%. For the compound `O=C(c1ccco1)c1coc2ccc(Cl)cc2c1=O`, the displacement came out at 8.8%. For the compound `O=C(CN(c1ccccc1)S(=O)(=O)c1ccccc1[N+](=O)[O-])N1CCCC1`, the displacement turned out to be 7.3%.

As to `Clc1ccc(OCCCN2CCCCC2)cc1`, the displacement was -10%. Regarding `C/C(=N/NC(=O)c1ccccc1)C1CC1`, the displacement was found to be 18.4%. For `CC(C)(C)c1ccc(-c2nnc(-c3ccc4c(c3)OCO4)o2)cc1`, the displacement is -9.2%. The value for `O=C(O)CCCCCN1C(=O)C(=O)/C(=C(/O)c2ccc([N+](=O)[O-])cc2)C1c1ccccc1F` (configuration not stated) was 18.3%; that for `COc1ccc(NC(=O)C(=O)NCc2ccccn2)c(OC)c1` was 9.1%. As to `Cc1ccc(N(CC(O)CN2CCCCC2)S(=O)(=O)c2ccc(C)cc2)cc1` (configuration not stated), the displacement is -2.2%. Regarding `CC(=O)OCCNC(=O)/C(=C\c1ccc(Br)cc1)NC(=O)c1ccc(Br)o1`, the displacement was -5.6%. With `Cc1ccccc1/C=C1/SC(N)=NC1=O`, the displacement came to 3.6%. `CC(C)CC(NC(=O)c1ccccc1)C(=O)OCC(=O)Nc1cccc2ccccc12` (configuration not stated): the displacement was -1.7%. With `O=[N+]([O-])c1ccc(S(=O)(=O)N2CCN(c3ccccn3)CC2)cc1`, the displacement was -0.6%. In the case of `O=C(NN1C(=O)/C(=C/c2cccc(F)c2)SC1=S)c1ccncc1`, the displacement came out at 15.5%. Take `CN1CCN(C(=O)Nc2ccccc2)CC1`: the displacement is -1.2%.

`O=C(Nc1ccccc1C(=O)Nc1ccncc1)c1ccccc1`: the displacement was 8%.

For the compound `CSc1nc2ccc(NC(=O)CSc3nc4ccc([N+](=O)[O-])cc4s3)cc2s1`, the displacement was 12.3%.

As to `COc1ccccc1NC(=O)COc1ccc(C)c(C)c1`, the displacement is 9.9%. Take `COc1ccc(CN2CCN(S(=O)(=O)c3ccc(Cl)cc3)CC2)cc1Br`: the displacement was -5%. The value for `Cc1ccccc1OCC(=O)N/N=C/c1cn(C)c2ccccc12` was 0.7%; that for `Nc1nc2n(n1)C(c1ccccc1)C=C(c1ccccc1)N2` (configuration not stated) was 13.6%; that for `COc1ccc(C2CC(C(F)(F)F)n3nc(C(=O)Nc4cccc(C(C)O)c4)cc3N2)cc1` (configuration not stated) was 4.5%.

`CN(C)c1nnc(-c2ccccc2)c(-c2ccccc2)n1`: the displacement was -10.7%. Consider `COc1ccccc1N1CCN(C(=O)CN(c2ccc(C)cc2)S(=O)(=O)c2ccc(F)cc2)CC1`, for which the displacement is -12.6%. As to `O=C(O)C1C2CCC(C2)C1C(=O)Nc1nccs1` (configuration not stated), the displacement was -0.4%. For `Cn1c(O)c(N=Nc2ccccn2)c2ccccc21`, the displacement amounted to 24.2%. The value for `CCC1=NN(C(=O)c2ccccc2Br)C(O)(c2ccncc2)C1` (configuration not stated) was -26.2%.

For `COc1ccc(OC)c(C=NNC(=O)Cn2nnc3ccccc32)c1`, the displacement is -8.8%. As for `O=C(CSCCNS(=O)(=O)c1ccccc1)Nc1ccccc1`, the displacement was -4.9%. Turning to `O=C(N/N=C/c1ccc(O)c([N+](=O)[O-])c1)c1cccnc1`, the displacement amounted to 3.9%. The value for `COc1cc(/C=C2\C(=O)NC(=O)N(c3cc(C)cc(C)c3)C2=O)cc(OC)c1O` was 12.1%; that for `CCN(CC)c1ccc(NC(=O)C2CCC(C)(C(=O)O)C2(C)C)cc1` (configuration not stated) was -4.7%.

(Values after PubChem BioAssay AID1240 (Sanford-Burnham Center for Chemical Genomics, 2008).)
